{"source": "the supplement of paper PMC11876631", "biological_target": "Escherichia coli (laboratory strain)", "test": "barcode share on antibiotic plates over drug-free plates; higher = less susceptible", "description": "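A pool of E. coli strains, each edited to carry one amino-acid change in an essential protein, was grown for 48 h on minimal glucose agar with or without antibiotic; strain barcodes were sequenced; mean of two replicates.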", "key": {"[1]": {"settings": "antibiotic: carbenicillin, 2× MIC (3.1 µg/mL)"}, "[2]": {"settings": "antibiotic: gentamicin, 2× MIC (MIC 0.45 µg/mL)"}}, "note": "± gives the standard deviation of the averaged measurements. Laboratory Escherichia coli strains with one amino-acid change in an essential protein, pooled on minimal glucose agar with carbenicillin or gentamicin at twice the control MIC (plus kanamycin and chloramphenicol for the plasmids), 48 h. Fold change of barcode share against drug-free plates; higher = less susceptible. Active = above 20 in both replicates (the paper's putatively resistant). '<' = one read or none on drug, '>' = one read or none on a drug-free plate. Shares are relative, so most strains fall below 1 when a few take over. Listed are strains with at least 15 reads on both drug-free plates, and hits; most hits rest on fewer reference reads. Replicate rank correlation about 0.5. Edits are read from barcodes.", "data": [{"protein": "nadD L129A (protein) MKSLQALFGGTFDPVHYGHLKPVETLANLIGLTRVTIIPNNVPPHRPQPEANSVQRKHMLELAIADKPLFTLDERELKRNAPSYTAQTLKEWRQEQGPDVPLAFIIGQDSLLTFPTWYEYETILDNAHAIVCRRPGYPLEMAQPQYQQWLEDHLTHNPEDLHLQPAGKIYLAETPWFNISATIIRERLQNGESCEDLLPEPVLTYINQQGLYR", "values": [{"measurement": "fold change of barcode share", "setting": "[1]", "result": "0.313 ± 0.15"}, {"measurement": "fold change of barcode share", "setting": "[2]", "result": "0.00663 ± 0.003"}]}, {"protein": "nadD L129Q (protein) MKSLQALFGGTFDPVHYGHLKPVETLANLIGLTRVTIIPNNVPPHRPQPEANSVQRKHMLELAIADKPLFTLDERELKRNAPSYTAQTLKEWRQEQGPDVPLAFIIGQDSLLTFPTWYEYETILDNAHQIVCRRPGYPLEMAQPQYQQWLEDHLTHNPEDLHLQPAGKIYLAETPWFNISATIIRERLQNGESCEDLLPEPVLTYINQQGLYR", "values": [{"measurement": "fold change of barcode share", "setting": "[1]", "result": "0.373 ± 0.21"}, {"measurement": "fold change of barcode share", "setting": "[2]", "result": "< 0.0115"}]}, {"protein": "nadD L129D (protein) MKSLQALFGGTFDPVHYGHLKPVETLANLIGLTRVTIIPNNVPPHRPQPEANSVQRKHMLELAIADKPLFTLDERELKRNAPSYTAQTLKEWRQEQGPDVPLAFIIGQDSLLTFPTWYEYETILDNAHDIVCRRPGYPLEMAQPQYQQWLEDHLTHNPEDLHLQPAGKIYLAETPWFNISATIIRERLQNGESCEDLLPEPVLTYINQQGLYR", "values": [{"measurement": "fold change of barcode share", "setting": "[1]", "result": "0.728 ± 0.071"}]}, {"protein": "nadD L129P (protein) MKSLQALFGGTFDPVHYGHLKPVETLANLIGLTRVTIIPNNVPPHRPQPEANSVQRKHMLELAIADKPLFTLDERELKRNAPSYTAQTLKEWRQEQGPDVPLAFIIGQDSLLTFPTWYEYETILDNAHPIVCRRPGYPLEMAQPQYQQWLEDHLTHNPEDLHLQPAGKIYLAETPWFNISATIIRERLQNGESCEDLLPEPVLTYINQQGLYR", "values": [{"measurement": "fold change of barcode share", "setting": "[1]", "result": "0.289 ± 0.15"}, {"measurement": "fold change of barcode share", "setting": "[2]", "result": "< 0.00701"}]}, {"protein": "asnS L383W (protein) MSVVPVADVLQGRVAVDSEVTVRGWVRTRRDSKAGISFLAVYDGSCFDPVQAVINNSLPNYNEDVLRLTTGCSVIVTGKVVASPGQGQQFEIQASKVEVAGWVEDPDTYPMAAKRHSIEYLREVAHLRPRTNLIGAVARVRHTLAQALHRFFNEQGFFWVSTPLITASDTEGAGEMFRVSTLDLENLPRNDQGKVDFDKDFFGKESFLTVSGQLNGETYACALSKIYTFGPTFRAENSNTSRHLAEFWMLEPEVAFANLNDIAGLAEAMLKYVFKAVLEERADDMKFFAERVDKDAVSRLERFIEADFAQVDYTDAVTILENCGRKFENPVYWGVDLSSEHERYLAEEHFKAPVVVKNYPKDIKAFYMRLNEDGKTVAAMDVWAPGIGEIIGGSQREERLDVLDERMLEMGLNKEDYWWYRDLRRYGTVPHSGFGLGFERLIAYVTGVQNVRDVIPFPRTPRNASF", "values": [{"measurement": "fold change of barcode share", "setting": "[1]", "result": "0.37 ± 0.073"}, {"measurement": "fold change of barcode share", "setting": "[2]", "result": "0.00251 ± 0.0023"}]}, {"protein": "nadD I130A (protein) MKSLQALFGGTFDPVHYGHLKPVETLANLIGLTRVTIIPNNVPPHRPQPEANSVQRKHMLELAIADKPLFTLDERELKRNAPSYTAQTLKEWRQEQGPDVPLAFIIGQDSLLTFPTWYEYETILDNAHLAVCRRPGYPLEMAQPQYQQWLEDHLTHNPEDLHLQPAGKIYLAETPWFNISATIIRERLQNGESCEDLLPEPVLTYINQQGLYR", "values": [{"measurement": "fold change of barcode share", "setting": "[1]", "result": "0.3 ± 0.016"}, {"measurement": "fold change of barcode share", "setting": "[2]", "result": "< 0.00394"}]}, {"protein": "nadD I130W (protein) MKSLQALFGGTFDPVHYGHLKPVETLANLIGLTRVTIIPNNVPPHRPQPEANSVQRKHMLELAIADKPLFTLDERELKRNAPSYTAQTLKEWRQEQGPDVPLAFIIGQDSLLTFPTWYEYETILDNAHLWVCRRPGYPLEMAQPQYQQWLEDHLTHNPEDLHLQPAGKIYLAETPWFNISATIIRERLQNGESCEDLLPEPVLTYINQQGLYR", "values": [{"measurement": "fold change of barcode share", "setting": "[1]", "result": "0.313 ± 0.021"}, {"measurement": "fold change of barcode share", "setting": "[2]", "result": "< 0.0044"}]}, {"protein": "nadD I130Q (protein) MKSLQALFGGTFDPVHYGHLKPVETLANLIGLTRVTIIPNNVPPHRPQPEANSVQRKHMLELAIADKPLFTLDERELKRNAPSYTAQTLKEWRQEQGPDVPLAFIIGQDSLLTFPTWYEYETILDNAHLQVCRRPGYPLEMAQPQYQQWLEDHLTHNPEDLHLQPAGKIYLAETPWFNISATIIRERLQNGESCEDLLPEPVLTYINQQGLYR", "values": [{"measurement": "fold change of barcode share", "setting": "[1]", "result": "0.344 ± 0.055"}, {"measurement": "fold change of barcode share", "setting": "[2]", "result": "< 0.00233"}]}, {"protein": "nadD I130P (protein) MKSLQALFGGTFDPVHYGHLKPVETLANLIGLTRVTIIPNNVPPHRPQPEANSVQRKHMLELAIADKPLFTLDERELKRNAPSYTAQTLKEWRQEQGPDVPLAFIIGQDSLLTFPTWYEYETILDNAHLPVCRRPGYPLEMAQPQYQQWLEDHLTHNPEDLHLQPAGKIYLAETPWFNISATIIRERLQNGESCEDLLPEPVLTYINQQGLYR", "values": [{"measurement": "fold change of barcode share", "setting": "[1]", "result": "0.309 ± 0.081"}, {"measurement": "fold change of barcode share", "setting": "[2]", "result": "0.0038 ± 0.00072"}]}, {"protein": "nadD V131A (protein) MKSLQALFGGTFDPVHYGHLKPVETLANLIGLTRVTIIPNNVPPHRPQPEANSVQRKHMLELAIADKPLFTLDERELKRNAPSYTAQTLKEWRQEQGPDVPLAFIIGQDSLLTFPTWYEYETILDNAHLIACRRPGYPLEMAQPQYQQWLEDHLTHNPEDLHLQPAGKIYLAETPWFNISATIIRERLQNGESCEDLLPEPVLTYINQQGLYR", "values": [{"measurement": "fold change of barcode share", "setting": "[1]", "result": "0.283 ± 0.071"}, {"measurement": "fold change of barcode share", "setting": "[2]", "result": "0.00808 ± 0.0072"}]}, {"protein": "nadD V131W (protein) MKSLQALFGGTFDPVHYGHLKPVETLANLIGLTRVTIIPNNVPPHRPQPEANSVQRKHMLELAIADKPLFTLDERELKRNAPSYTAQTLKEWRQEQGPDVPLAFIIGQDSLLTFPTWYEYETILDNAHLIWCRRPGYPLEMAQPQYQQWLEDHLTHNPEDLHLQPAGKIYLAETPWFNISATIIRERLQNGESCEDLLPEPVLTYINQQGLYR", "values": [{"measurement": "fold change of barcode share", "setting": "[1]", "result": "0.345 ± 0.039"}, {"measurement": "fold change of barcode share", "setting": "[2]", "result": "0.0093 ± 0.0073"}]}, {"protein": "nadD V131Q (protein) MKSLQALFGGTFDPVHYGHLKPVETLANLIGLTRVTIIPNNVPPHRPQPEANSVQRKHMLELAIADKPLFTLDERELKRNAPSYTAQTLKEWRQEQGPDVPLAFIIGQDSLLTFPTWYEYETILDNAHLIQCRRPGYPLEMAQPQYQQWLEDHLTHNPEDLHLQPAGKIYLAETPWFNISATIIRERLQNGESCEDLLPEPVLTYINQQGLYR", "values": [{"measurement": "fold change of barcode share", "setting": "[1]", "result": "0.424 ± 0.27"}, {"measurement": "fold change of barcode share", "setting": "[2]", "result": "0.00979 ± 0.0037"}]}, {"protein": "nadD V131D (protein) MKSLQALFGGTFDPVHYGHLKPVETLANLIGLTRVTIIPNNVPPHRPQPEANSVQRKHMLELAIADKPLFTLDERELKRNAPSYTAQTLKEWRQEQGPDVPLAFIIGQDSLLTFPTWYEYETILDNAHLIDCRRPGYPLEMAQPQYQQWLEDHLTHNPEDLHLQPAGKIYLAETPWFNISATIIRERLQNGESCEDLLPEPVLTYINQQGLYR", "values": [{"measurement": "fold change of barcode share", "setting": "[1]", "result": "0.382 ± 0.042"}, {"measurement": "fold change of barcode share", "setting": "[2]", "result": "< 0.00439"}]}, {"protein": "nadD V131P (protein) MKSLQALFGGTFDPVHYGHLKPVETLANLIGLTRVTIIPNNVPPHRPQPEANSVQRKHMLELAIADKPLFTLDERELKRNAPSYTAQTLKEWRQEQGPDVPLAFIIGQDSLLTFPTWYEYETILDNAHLIPCRRPGYPLEMAQPQYQQWLEDHLTHNPEDLHLQPAGKIYLAETPWFNISATIIRERLQNGESCEDLLPEPVLTYINQQGLYR", "values": [{"measurement": "fold change of barcode share", "setting": "[1]", "result": "0.333 ± 0.0097"}, {"measurement": "fold change of barcode share", "setting": "[2]", "result": "0.0138 ± 0.013"}]}, {"protein": "nadD L198A (protein) MKSLQALFGGTFDPVHYGHLKPVETLANLIGLTRVTIIPNNVPPHRPQPEANSVQRKHMLELAIADKPLFTLDERELKRNAPSYTAQTLKEWRQEQGPDVPLAFIIGQDSLLTFPTWYEYETILDNAHLIVCRRPGYPLEMAQPQYQQWLEDHLTHNPEDLHLQPAGKIYLAETPWFNISATIIRERLQNGESCEDLAPEPVLTYINQQGLYR", "values": [{"measurement": "fold change of barcode share", "setting": "[1]", "result": "0.328 ± 0.15"}, {"measurement": "fold change of barcode share", "setting": "[2]", "result": "0.105 ± 0.14"}]}, {"protein": "nadD L198Q (protein) MKSLQALFGGTFDPVHYGHLKPVETLANLIGLTRVTIIPNNVPPHRPQPEANSVQRKHMLELAIADKPLFTLDERELKRNAPSYTAQTLKEWRQEQGPDVPLAFIIGQDSLLTFPTWYEYETILDNAHLIVCRRPGYPLEMAQPQYQQWLEDHLTHNPEDLHLQPAGKIYLAETPWFNISATIIRERLQNGESCEDLQPEPVLTYINQQGLYR", "values": [{"measurement": "fold change of barcode share", "setting": "[1]", "result": "0.469 ± 0.0074"}, {"measurement": "fold change of barcode share", "setting": "[2]", "result": "0.00659 ± 0.0057"}]}, {"protein": "nadD L198D (protein) MKSLQALFGGTFDPVHYGHLKPVETLANLIGLTRVTIIPNNVPPHRPQPEANSVQRKHMLELAIADKPLFTLDERELKRNAPSYTAQTLKEWRQEQGPDVPLAFIIGQDSLLTFPTWYEYETILDNAHLIVCRRPGYPLEMAQPQYQQWLEDHLTHNPEDLHLQPAGKIYLAETPWFNISATIIRERLQNGESCEDLDPEPVLTYINQQGLYR", "values": [{"measurement": "fold change of barcode share", "setting": "[1]", "result": "0.538 ± 0.19"}, {"measurement": "fold change of barcode share", "setting": "[2]", "result": "0.0151 ± 0.002"}]}, {"protein": "nadD L198P (protein) MKSLQALFGGTFDPVHYGHLKPVETLANLIGLTRVTIIPNNVPPHRPQPEANSVQRKHMLELAIADKPLFTLDERELKRNAPSYTAQTLKEWRQEQGPDVPLAFIIGQDSLLTFPTWYEYETILDNAHLIVCRRPGYPLEMAQPQYQQWLEDHLTHNPEDLHLQPAGKIYLAETPWFNISATIIRERLQNGESCEDLPPEPVLTYINQQGLYR", "values": [{"measurement": "fold change of barcode share", "setting": "[1]", "result": "0.463 ± 0.06"}, {"measurement": "fold change of barcode share", "setting": "[2]", "result": "0.664 ± 0.56"}]}]}
